Results as given in the supplement of paper PMC7125110.
± gives the standard error. Variants at the background level are over-represented here.

B1: glmS ribozyme (parent)
chain: AUAAAAGCGCCAGAACUACAGAAAUGUAGUUGACGAGGAGGAGGUUUAUCGAAUUUUCGGCGGAUGCCUCCAAA

Assays:
Settings in all cases: with glucosamine-6-phosphate
glucosamine-6-phosphate [1] = variants of: B1; assay: self-cleavage kobs at 640 uM GlcN6P; higher = faster cleavage; RNA array
Summary of the method: (§1)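 A hybridised Cy3 probe tracked barcoded ribozyme variants, transcribed in situ by E. coli RNA polymerase on sequenced MiSeq chips, at 37 °C. The variants received 40 μM to 10 mM glucosamine-6-phosphate in HEPES/KCl/Mg(OAc)2 buffer. kobs came from decay fits and kcat and KM from weighted Michaelis–Menten fits.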

glucosamine-6-phosphate [2] = variants of: B1; assay: self-cleavage kobs at 2500 uM GlcN6P; higher = faster cleavage; RNA array
Summary of the method: as §1

glucosamine-6-phosphate [3] = variants of: B1; assay: self-cleavage kobs at 10000 uM GlcN6P; higher = faster cleavage; RNA array
Summary of the method: as §1

glucosamine-6-phosphate [4] = variants of: B1; assay: self-cleavage kobs at 160 uM GlcN6P; higher = faster cleavage; RNA array
Summary of the method: as §1

| Variant | self-cleavage kobs at 640 uM GlcN6P (glucosamine-6-phosphate [1]) | self-cleavage kobs at 2500 uM GlcN6P (glucosamine-6-phosphate [2]) | self-cleavage kobs at 10000 uM GlcN6P (glucosamine-6-phosphate [3]) | self-cleavage kobs at 160 uM GlcN6P (glucosamine-6-phosphate [4]) |
| --- | --- | --- | --- | --- |
| G35U A36C A39U | < 1e-05 s⁻¹ | < 1e-05 s⁻¹ | < 1e-05 s⁻¹ | – |
| G41C C58U U65G | < 1e-05 s⁻¹ | < 1e-05 s⁻¹ | – | – |
| U31A C34U A36G | < 1e-05 s⁻¹ | < 1e-05 s⁻¹ | – | – |
| A42C A48U U65C | < 1e-05 s⁻¹ | – | – | – |
| U31C C34G G44A U46C C58U | < 1e-05 s⁻¹ | – | – | – |
| A39G A42G C50A | < 1e-05 s⁻¹ | < 1e-05 s⁻¹ | – | – |
| A33G U45C U46A G62A | < 1e-05 s⁻¹ | < 1e-05 s⁻¹ | – | < 1e-05 s⁻¹ |
| G38U G51C C67G | < 1e-05 s⁻¹ | – | – | – |
| A33C G43U G63U | < 1e-05 s⁻¹ | < 1e-05 s⁻¹ | – | – |
| C34A G43A G51C U56G | < 1e-05 s⁻¹ | – | – | – |
| C34A G41A G60C | < 1e-05 s⁻¹ | < 1e-05 s⁻¹ | – | < 1e-05 s⁻¹ |
| U31C U49G G66U | < 1e-05 s⁻¹ | – | – | – |
| C34G A52C G66U | < 1e-05 s⁻¹ | – | – | – |
| G41C U46G U57C | < 1e-05 s⁻¹ | < 1e-05 s⁻¹ | – | < 1e-05 s⁻¹ |
| G40U C50G U56G G66U | < 1e-05 s⁻¹ | – | – | – |
| A39U G43C G44A G51U | < 1e-05 s⁻¹ | < 1e-05 s⁻¹ | – | – |
| G35U G41C G63A | < 1e-05 s⁻¹ | – | – | – |
| A36U G41U U46G A48U | < 1e-05 s⁻¹ | < 1e-05 s⁻¹ | < 1e-05 s⁻¹ | – |
| G32U U49A | < 1e-05 s⁻¹ | < 1e-05 s⁻¹ | < 1e-05 s⁻¹ | – |

| Variant | self-cleavage kobs at 640 uM GlcN6P (glucosamine-6-phosphate [1]) | self-cleavage kobs at 2500 uM GlcN6P (glucosamine-6-phosphate [2]) | self-cleavage kobs at 10000 uM GlcN6P (glucosamine-6-phosphate [3]) | self-cleavage kobs at 160 uM GlcN6P (glucosamine-6-phosphate [4]) |
| --- | --- | --- | --- | --- |
| U31A A36C A42C C70U | < 1e-05 s⁻¹ | < 1e-05 s⁻¹ | – | – |
| A33U G60A C67U | < 1e-05 s⁻¹ | – | – | – |
| G40A C61U C68G C70G C71G | < 1e-05 s⁻¹ | – | – | < 1e-05 s⁻¹ |
| A33C G51C G59A | < 1e-05 s⁻¹ | – | – | < 1e-05 s⁻¹ |
| U31G U45G | 0.000405 ± 0.0001 s⁻¹ | 0.00155 ± 0.00034 s⁻¹ | 0.00164 ± 0.00042 s⁻¹ | – |
| A36G G37C U46C | < 1e-05 s⁻¹ | < 1e-05 s⁻¹ | – | – |
| C34U A36G | < 1e-05 s⁻¹ | < 1e-05 s⁻¹ | – | < 1e-05 s⁻¹ |
| A33C A39U C50U | < 1e-05 s⁻¹ | – | – | – |
| G38C A39C G59A | < 1e-05 s⁻¹ | < 1e-05 s⁻¹ | – | < 1e-05 s⁻¹ |
| G41U U49G G60U G66C | < 1e-05 s⁻¹ | < 1e-05 s⁻¹ | – | – |
| G40A G51C | < 1e-05 s⁻¹ | – | < 1e-05 s⁻¹ | < 1e-05 s⁻¹ |
| G32U A52U C58U C61U | < 1e-05 s⁻¹ | < 1e-05 s⁻¹ | – | – |
| A33U A36C | < 1e-05 s⁻¹ | – | – | < 1e-05 s⁻¹ |
| A33U A36G | < 1e-05 s⁻¹ | < 1e-05 s⁻¹ | – | < 1e-05 s⁻¹ |
| A36U G41A A42U G43U | < 1e-05 s⁻¹ | < 1e-05 s⁻¹ | – | < 1e-05 s⁻¹ |
| G40U G41U C61U | < 1e-05 s⁻¹ | < 1e-05 s⁻¹ | – | < 1e-05 s⁻¹ |
| U31G G41A G63C G66A | < 1e-05 s⁻¹ | – | < 1e-05 s⁻¹ | – |
| A39G A48G A52C | < 1e-05 s⁻¹ | < 1e-05 s⁻¹ | – | – |
| A33U C58U C71U | < 1e-05 s⁻¹ | < 1e-05 s⁻¹ | – | < 1e-05 s⁻¹ |

| Variant | self-cleavage kobs at 640 uM GlcN6P (glucosamine-6-phosphate [1]) | self-cleavage kobs at 2500 uM GlcN6P (glucosamine-6-phosphate [2]) | self-cleavage kobs at 10000 uM GlcN6P (glucosamine-6-phosphate [3]) | self-cleavage kobs at 160 uM GlcN6P (glucosamine-6-phosphate [4]) |
| --- | --- | --- | --- | --- |
| C34G G40U U46A | < 1e-05 s⁻¹ | – | – | – |
| G37U A42G A52U | < 1e-05 s⁻¹ | – | – | – |
| G38U U57G | < 1e-05 s⁻¹ | < 1e-05 s⁻¹ | – | – |
| G35A C70G | < 1e-05 s⁻¹ | – | – | < 1e-05 s⁻¹ |
| A39U G62A U65A | < 1e-05 s⁻¹ | < 1e-05 s⁻¹ | – | – |
| A33U C50G G51C U55C G62U C68G | < 1e-05 s⁻¹ | – | < 1e-05 s⁻¹ | – |
| G37C G51C | < 1e-05 s⁻¹ | – | < 1e-05 s⁻¹ | < 1e-05 s⁻¹ |
| G40A C50G A64G | < 1e-05 s⁻¹ | < 1e-05 s⁻¹ | – | – |
| G38C G63C | < 1e-05 s⁻¹ | < 1e-05 s⁻¹ | – | < 1e-05 s⁻¹ |
| A33U C34G C70U | < 1e-05 s⁻¹ | – | – | – |
| A36G G66C | < 1e-05 s⁻¹ | < 1e-05 s⁻¹ | – | < 1e-05 s⁻¹ |
| A33G A48C A52U U54A | < 1e-05 s⁻¹ | < 1e-05 s⁻¹ | – | – |
| G35U G59U G63A | < 1e-05 s⁻¹ | – | – | < 1e-05 s⁻¹ |
| C34G G38A U55A | < 1e-05 s⁻¹ | – | – | – |
| U31G G37C U45G C70U | < 1e-05 s⁻¹ | < 1e-05 s⁻¹ | – | – |
| G37A A52U U55C A64U | < 1e-05 s⁻¹ | – | – | – |
| A36U G41A C67U C71U | < 1e-05 s⁻¹ | – | – | – |
| G37C U49C | < 1e-05 s⁻¹ | < 1e-05 s⁻¹ | < 1e-05 s⁻¹ | – |
| G37A G43U G51U U69G | < 1e-05 s⁻¹ | < 1e-05 s⁻¹ | – | – |
